According to the supplement of paper PMC10369915:
The other results are listed elsewhere or left out. Rule as the data show it: active = 3.2 or more and inactive = the rest. Only a few entries rise above the background.

Molecular target: SHP2 C-SH2 domain E139D
Test: enrichment score (SH2-bound / input frequency) (ratio); bacterial display of known human phosphotyrosine sites (pTyr-Var adds point mutants) read by sequencing; higher = stronger binding; tyrosines were phosphorylated by kinases first
Conditions: peptide library: pTyr-Var
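Also: displayed peptides selected on beads carrying the immobilized SH2 domain, with library peptides lacking any tyrosine serving as negative controls.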

Enrichment score, inactive:
FMMMRYSQNVR [SDAD1_Y656] 1.89
PHMQTYEVDLN [SDHB_Y61] 0.783
PHMQTYEVDHN [SDHB_Y61_L65H] 0.618
PHMQTYEVDPN [SDHB_Y61_L65P] 0.818
NLDRFYQQVTK [SEC16A_Y1041] 1.1
NLDCFYQQVTK [SEC16A_Y1041_R1039C] 0.831
NMHSTYAKLAA [SEC22B_Y193] 1.37
VVHSSYDEIEG [SEC24A_Y263] 0.644
NDTAGYFVIGG [SEL1L3_Y399_I401V] 0.867
SGAWSYNTSTE [SELE_Y24] 0.919
SGSWSYNTSTE [SELE_Y24_A21S] 0.813
SGSFRYGSSCE [SELE_Y390] 0.633
SGSFRYGSSFE [SELE_Y390_C394F] 0.7
PNATLYKMSSI [SERPINA7_Y40] 0.518
RKELFYKADGE [SERPINC1_Y272] 0.662
RKKLFYKADGE [SERPINC1_Y272_E269K] 0.3
EEALHYLTRVE [SET_Y119] 0.952
EEALFYLTRVE [SET_Y119_H118Y_YF] 0.886

Enrichment score, active:
SVNIRYLLFPS [SERAC1_Y548] 3.4

Molecular target: SHP2 C-SH2 domain wild-type
Test: as above
Conditions: peptide library: pTyr-Var

Enrichment score, inactive:
FMMMRYSQNVR [SDAD1_Y656] 1.47
PHMQTYEVDLN [SDHB_Y61] 0.707
PHMQTYEVDHN [SDHB_Y61_L65H] 0.723
PHMQTYEVDPN [SDHB_Y61_L65P] 0.706
NLDRFYQQVTK [SEC16A_Y1041] 0.851
NLDCFYQQVTK [SEC16A_Y1041_R1039C] 0.92
VVHSSYDEIEG [SEC24A_Y263] 0.594
NDTAGYFVIGG [SEL1L3_Y399_I401V] 0.938
SGAWSYNTSTE [SELE_Y24] 0.76
SGSWSYNTSTE [SELE_Y24_A21S] 0.809
SGSFRYGSSCE [SELE_Y390] 0.567
SGSFRYGSSFE [SELE_Y390_C394F] 0.637
SVNIRYLLFPS [SERAC1_Y548] 3.1
PNATLYKMSSI [SERPINA7_Y40] 0.668
RKELFYKADGE [SERPINC1_Y272] 0.487
RKKLFYKADGE [SERPINC1_Y272_E269K] 0.31
EEALHYLTRVE [SET_Y119] 0.971
EEALFYLTRVE [SET_Y119_H118Y_YF] 0.749

Enrichment score, active:
NMHSTYAKLAA [SEC22B_Y193] 3.32

Molecular target: SHP2 N-SH2 domain L43F
Test: as above
Conditions: peptide library: pTyr-Var

Enrichment score, active:
SVNIRYLLFPS [SERAC1_Y548] 3.4

Enrichment score, inactive:
FMMMRYSQNVR [SDAD1_Y656] 1.86
PHMQTYEVDLN [SDHB_Y61] 0.644
PHMQTYEVDHN [SDHB_Y61_L65H] 0.824
PHMQTYEVDPN [SDHB_Y61_L65P] 0.86
NLDRFYQQVTK [SEC16A_Y1041] 0.816
NLDCFYQQVTK [SEC16A_Y1041_R1039C] 0.957
NMHSTYAKLAA [SEC22B_Y193] 0.644
VVHSSYDEIEG [SEC24A_Y263] 0.465
NDTAGYFVIGG [SEL1L3_Y399_I401V] 0.892
SGAWSYNTSTE [SELE_Y24] 0.843
SGSWSYNTSTE [SELE_Y24_A21S] 0.833
SGSFRYGSSCE [SELE_Y390] 0.571
SGSFRYGSSFE [SELE_Y390_C394F] 0.896
PNATLYKMSSI [SERPINA7_Y40] 0.689
RKELFYKADGE [SERPINC1_Y272] 0.405
RKKLFYKADGE [SERPINC1_Y272_E269K] 0.222
EEALHYLTRVE [SET_Y119] 2.08
EEALFYLTRVE [SET_Y119_H118Y_YF] 0.853

Molecular target: SHP2 N-SH2 domain T42A
Test: as above
Conditions: peptide library: pTyr-Var

Enrichment score, inactive:
FMMMRYSQNVR [SDAD1_Y656] 1.81
PHMQTYEVDLN [SDHB_Y61] 0.699
PHMQTYEVDHN [SDHB_Y61_L65H] 0.502
PHMQTYEVDPN [SDHB_Y61_L65P] 0.47
NLDRFYQQVTK [SEC16A_Y1041] 0.853
NLDCFYQQVTK [SEC16A_Y1041_R1039C] 0.808
NMHSTYAKLAA [SEC22B_Y193] 2.4
VVHSSYDEIEG [SEC24A_Y263] 0.872
NDTAGYFVIGG [SEL1L3_Y399_I401V] 0.934
SGAWSYNTSTE [SELE_Y24] 0.911
SGSWSYNTSTE [SELE_Y24_A21S] 0.748
SGSFRYGSSCE [SELE_Y390] 0.562
SGSFRYGSSFE [SELE_Y390_C394F] 0.622
SVNIRYLLFPS [SERAC1_Y548] 3.1
PNATLYKMSSI [SERPINA7_Y40] 0.617
RKELFYKADGE [SERPINC1_Y272] 0.315
RKKLFYKADGE [SERPINC1_Y272_E269K] 0.256
EEALHYLTRVE [SET_Y119] 1.07
EEALFYLTRVE [SET_Y119_H118Y_YF] 0.797

Molecular target: SHP2 N-SH2 domain T52S
Test: as above
Conditions: peptide library: pTyr-Var

Enrichment score, inactive:
FMMMRYSQNVR [SDAD1_Y656] 1.87
PHMQTYEVDLN [SDHB_Y61] 0.775
PHMQTYEVDHN [SDHB_Y61_L65H] 0.668
PHMQTYEVDPN [SDHB_Y61_L65P] 0.804
NLDRFYQQVTK [SEC16A_Y1041] 0.714
NLDCFYQQVTK [SEC16A_Y1041_R1039C] 0.951
NMHSTYAKLAA [SEC22B_Y193] 0.747
VVHSSYDEIEG [SEC24A_Y263] 0.585
NDTAGYFVIGG [SEL1L3_Y399_I401V] 0.885
SGAWSYNTSTE [SELE_Y24] 0.691
SGSWSYNTSTE [SELE_Y24_A21S] 0.902
SGSFRYGSSCE [SELE_Y390] 0.469
SGSFRYGSSFE [SELE_Y390_C394F] 0.563
SVNIRYLLFPS [SERAC1_Y548] 2.86
PNATLYKMSSI [SERPINA7_Y40] 0.578
RKELFYKADGE [SERPINC1_Y272] 0.466
RKKLFYKADGE [SERPINC1_Y272_E269K] 0.328
EEALHYLTRVE [SET_Y119] 1.94
EEALFYLTRVE [SET_Y119_H118Y_YF] 0.687

Molecular target: SHP2 N-SH2 domain wild-type
Test: as above
Conditions: peptide library: pTyr-Var

Enrichment score, inactive:
FMMMRYSQNVR [SDAD1_Y656] 2.06
PHMQTYEVDLN [SDHB_Y61] 0.776
PHMQTYEVDHN [SDHB_Y61_L65H] 0.861
PHMQTYEVDPN [SDHB_Y61_L65P] 0.91
NLDRFYQQVTK [SEC16A_Y1041] 0.942
NLDCFYQQVTK [SEC16A_Y1041_R1039C] 0.915
NMHSTYAKLAA [SEC22B_Y193] 0.659
VVHSSYDEIEG [SEC24A_Y263] 0.679
NDTAGYFVIGG [SEL1L3_Y399_I401V] 0.865
SGAWSYNTSTE [SELE_Y24] 0.841
SGSWSYNTSTE [SELE_Y24_A21S] 0.988
SGSFRYGSSCE [SELE_Y390] 0.634
SGSFRYGSSFE [SELE_Y390_C394F] 0.795
SVNIRYLLFPS [SERAC1_Y548] 2.79
PNATLYKMSSI [SERPINA7_Y40] 0.886
RKELFYKADGE [SERPINC1_Y272] 0.554
RKKLFYKADGE [SERPINC1_Y272_E269K] 0.342
EEALHYLTRVE [SET_Y119] 0.996
EEALFYLTRVE [SET_Y119_H118Y_YF] 1.01
